Laboratory results: patent publication US9133439B2, “Differentiation of human embryonic stem cells” (Janssen Biotech, Inc., priority 2009, dated 2015)
Like-named read-outs stand apart in the source and are kept apart here.

Assays:
[1] = test system: NKX6.1 expression in differentiated H1 human embryonic stem cells; test: Example 3: confirmation screen, NKX6.1 expression by high content analysis; type: cell-based; conditions: for NKX6.1 Cell Count Ratio / NKX6.1 Intensity RATIO: 2.5 uM, steps 3 and 4, triplicate, relative to control treatment
[2] = test system: NGN3 expression in differentiated H1 human embryonic stem cells; test: Example 3: confirmation screen, NGN3 expression by high content analysis; type: cell-based; conditions: for NGN3 Cell Count Ratio / NGN3 Intensity RATIO: 2.5 uM, steps 3 and 4, triplicate, relative to control treatment
[3] = test system: NGN3 expression in differentiated H1 human embryonic stem cells; test: Example 1: kinase inhibitor library screen, NGN3 expression by high content analysis after differentiation; type: cell-based; conditions: for NGN3 intensity RANK, Dose Stages 3&4 / NGN3 intensity RANK, Dose Stage 3 / NGN3 intensity RANK, Dose Stage 4: rank order among both kinase inhibitor libraries; for fold induction at 2.5 µM: Homo sapiens, Embryonic stem cell
[4] = test system: NGN3 expression in differentiated H1 human embryonic stem cells; conditions: for NGN3 RANK: 2.5 μM compound in steps 3 and 4, with Trichostatin A, ordered ranking of top 16 hits; for NGN3 Intensity RATIO: ratio of NGN3 staining for well treated with individual compound relative to average staining in wells with DMSO alone
[5] = test system: NKX6.1 expression in differentiated H1 human embryonic stem cells; conditions: for NKX6.1 RANK: 2.5 μM compound in steps 3 and 4, with Trichostatin A, ordered ranking of top 16 hits; for NKX6.1 Intensity RATIO: ratio of NKX6.1 staining for well treated with individual compound relative to average staining in wells with DMSO alone
[6] = inhibitor dosed at stage 3 only, NGN3 total intensity as ratio to control, EMDII and BioMol kinase inhibitor libraries
[7] = inhibitor dosed at stage 4 only, NGN3 total intensity as ratio to control, EMDII and BioMol kinase inhibitor libraries
[8] = inhibitor dosed at stages 3 and 4, NGN3 total intensity as ratio to control, EMDII and BioMol kinase inhibitor libraries
[9] = 2.5 μM compound during combined stages 3 and 4, NGN3 staining intensity relative to DMSO vehicle wells
[10] = 2.5 μM compound during combined stages 3 and 4
[11] = 2.5 μM compound during stage 3 alone, NGN3 staining intensity relative to DMSO vehicle wells
[12] = 2.5 μM compound during stage 3 alone
[13] = 2.5 μM compound during stage 4 alone, NGN3 staining intensity relative to DMSO vehicle wells
[14] = 2.5 μM compound during stage 4 alone
[15] = 2.5 μM compound during combined stages 3 and 4, NGN3 staining intensity relative to DMSO vehicle wells, read-out: NGN3 intensity RATIO, Dose Stages 3&4
[16] = 2.5 μM compound during stage 3 alone, NGN3 staining intensity relative to DMSO vehicle wells, read-out: NGN3 intensity RATIO, Dose Stage 3
[17] = 2.5 μM compound during stage 4 alone, NGN3 staining intensity relative to DMSO vehicle wells, read-out: NGN3 intensity RATIO, Dose Stage 4

CN(C)CCCn1cc(C2=C(c3c[nH]c4ccccc34)C(=O)NC2=O)c2ccccc21 [GF 109203X]
NKX6.1 Cell Count Ratio [1]: 5.20
NKX6.1 Intensity RATIO [1]: 3.57
NGN3 Cell Count Ratio [2]: 4.17
NGN3 Intensity RATIO [2]: 3.33
NGN3 Intensity RATIO, Dose Stage 3 [3, 6]: 0.99
NGN3 Intensity RATIO, Dose Stage 4 [3, 7]: 1.29
NGN3 Intensity RATIO, Dose Stages 3 & 4 [3, 8]: 1.04
NGN3 RANK [4]: 11
NGN3 Intensity RATIO [4]: 1.53
NKX6.1 RANK [5]: 6
NKX6.1 Intensity RATIO [5]: 4.54

O=C1Nc2ccc(I)cc2/C1=C/c1cc(Br)c(O)c(Br)c1 [GW 5074]
NKX6.1 Cell Count Ratio [1]: 2.77
NKX6.1 Intensity RATIO [1]: 2.32
NGN3 Cell Count Ratio [2]: 3.15
NGN3 Intensity RATIO [2]: 2.79
NGN3 Intensity RATIO, Dose Stage 3 [3, 6]: 1.35
NGN3 Intensity RATIO, Dose Stage 4 [3, 7]: 0.77
NGN3 Intensity RATIO, Dose Stages 3 & 4 [3, 8]: 0.94
NGN3 RANK [4]: 8
NGN3 Intensity RATIO [4]: 1.78
NKX6.1 RANK [5]: 10
NKX6.1 Intensity RATIO [5]: 3.48

CC1CNCCN1S(=O)(=O)c1cccc2cnccc12 (centres unmarked) [H-7]
NKX6.1 Cell Count Ratio [1]: 2.02
NKX6.1 Intensity RATIO [1]: 1.88
NGN3 Cell Count Ratio [2]: 2.75
NGN3 Intensity RATIO [2]: 2.44
NGN3 Intensity RATIO, Dose Stages 3 & 4 [3, 9]: 2.08
NGN3 intensity RANK, Dose Stages 3&4 [3, 10]: 6
NGN3 Intensity RATIO, Dose Stage 3 [3, 11]: 1.93
NGN3 intensity RANK, Dose Stage 3 [3, 12]: 5
NGN3 Intensity RATIO, Dose Stage 4 [3, 13]: 2.18
NGN3 intensity RANK, Dose Stage 4 [3, 14]: 5
NGN3 Intensity RATIO, Dose Stage 3 [3, 6]: 1.93
NGN3 Intensity RATIO, Dose Stage 4 [3, 7]: 2.18
NGN3 Intensity RATIO, Dose Stages 3 & 4 [3, 8]: 2.08
NGN3 Intensity RATIO [4]: 1.26
NKX6.1 Intensity RATIO [5]: 1.99

NCCNS(=O)(=O)c1cccc2cnccc12 [H-9]
NKX6.1 Cell Count Ratio [1]: 1.93
NKX6.1 Intensity RATIO [1]: 1.76
NGN3 Cell Count Ratio [2]: 2.85
NGN3 Intensity RATIO [2]: 2.47
NGN3 Intensity RATIO, Dose Stages 3 & 4 [3, 9]: 1.36
NGN3 intensity RANK, Dose Stages 3&4 [3, 10]: 26
NGN3 Intensity RATIO, Dose Stage 3 [3, 11]: 2.62
NGN3 intensity RANK, Dose Stage 3 [3, 12]: 1
NGN3 Intensity RATIO, Dose Stage 4 [3, 13]: 1.97
NGN3 intensity RANK, Dose Stage 4 [3, 14]: 6
NGN3 Intensity RATIO, Dose Stage 3 [3, 6]: 2.62
NGN3 Intensity RATIO, Dose Stage 4 [3, 7]: 1.97
NGN3 Intensity RATIO, Dose Stages 3 & 4 [3, 8]: 1.36
NGN3 RANK [4]: 1
NGN3 Intensity RATIO [4]: 2.24
NKX6.1 RANK [5]: 1
NKX6.1 Intensity RATIO [5]: 7.36

NC(N)=NCCNS(=O)(=O)c1cccc2cnccc12 [HA-1004]
NKX6.1 Cell Count Ratio [1]: 2.83
NKX6.1 Intensity RATIO [1]: 2.66
NGN3 Cell Count Ratio [2]: 2.77
NGN3 Intensity RATIO [2]: 2.49
NGN3 Intensity RATIO, Dose Stages 3 & 4 [3, 9]: 1.63
NGN3 intensity RANK, Dose Stages 3&4 [3, 10]: 17
NGN3 Intensity RATIO, Dose Stage 3 [3, 11]: 1.82
NGN3 intensity RANK, Dose Stage 3 [3, 12]: 6
NGN3 Intensity RATIO, Dose Stage 4 [3, 13]: 2.30
NGN3 intensity RANK, Dose Stage 4 [3, 14]: 3
NGN3 Intensity RATIO, Dose Stage 3 [3, 6]: 1.82
NGN3 Intensity RATIO, Dose Stage 4 [3, 7]: 2.30
NGN3 Intensity RATIO, Dose Stages 3 & 4 [3, 8]: 1.63
NGN3 RANK [4]: 10
NGN3 Intensity RATIO [4]: 1.55
NKX6.1 RANK [5]: 8
NKX6.1 Intensity RATIO [5]: 3.88

O=C1Cc2c([nH]c3ccc(Br)cc23)-c2ccccc2N1 [Kenpaullone]
NKX6.1 Cell Count Ratio [1]: 0.53
NKX6.1 Intensity RATIO [1]: 0.45
effect on NKX6.1 expression relative to a control treatment (in words) ([1]; confirmation screen, Example 3): no enhancing effects
NGN3 Cell Count Ratio [2]: 1.52
NGN3 Intensity RATIO [2]: 1.40
effect on NGN3 expression relative to a control treatment (in words) ([2]; confirmation screen, Example 3): no enhancing effects
NGN3 intensity RANK, Dose Stages 3&4 [3, 10]: 53
NGN3 intensity RANK, Dose Stage 3 [3, 12]: 14
NGN3 intensity RANK, Dose Stage 4 [3, 14]: 23
fold induction at 2.5 µM [3, 15]: 1.03
fold induction at 2.5 µM [3, 16]: 1.66
fold induction at 2.5 µM [3, 17]: 1.32
NGN3 RANK [4]: 15
NGN3 Intensity RATIO [4]: 1.32
NKX6.1 RANK [5]: 11
NKX6.1 Intensity RATIO [5]: 3.18

O=c1cc(N2CCOCC2)oc2c(-c3ccccc3)cccc12 [LY 294002]
NKX6.1 Cell Count Ratio [1]: 6.54
NKX6.1 Intensity RATIO [1]: 6.60
NGN3 Cell Count Ratio [2]: 4.93
NGN3 Intensity RATIO [2]: 4.43
NGN3 intensity RANK, Dose Stages 3&4 [3, 10]: 2
NGN3 intensity RANK, Dose Stage 3 [3, 12]: 7
NGN3 intensity RANK, Dose Stage 4 [3, 14]: 9
fold induction at 2.5 µM [3, 15]: 2.46
fold induction at 2.5 µM [3, 16]: 1.82
fold induction at 2.5 µM [3, 17]: 1.63
NGN3 Intensity RATIO, Dose Stage 3 [3, 6]: 1.82
NGN3 Intensity RATIO, Dose Stage 4 [3, 7]: 1.63
NGN3 Intensity RATIO, Dose Stages 3 & 4 [3, 8]: 2.46
NGN3 RANK [4]: 3
NGN3 Intensity RATIO [4]: 2.18
NKX6.1 RANK [5]: 2
NKX6.1 Intensity RATIO [5]: 6.84
